The full ranking holds about 110,000 compounds; the median of “z-score” is about -0.1, and the highest 2% start at about 2. This is one part of the list.
target: Metabotropic glutamate receptor 8 (Rattus norvegicus) (UniProt P70579); assay: rat mGluR8 modulators via GIRK flux, primary screen, cell-based, thallium flux, HTS (AID 488969); details: HEK293 rat mGluR8, GIRK (G protein-gated inwardly rectifying potassium channel) thallium flux, FluoZin2; at 10 µM; stronger effect = higher value; submaximal glutamate (EC20) added with thallium
Chain of UniProt P70579 (P70579 whole entry, looked up): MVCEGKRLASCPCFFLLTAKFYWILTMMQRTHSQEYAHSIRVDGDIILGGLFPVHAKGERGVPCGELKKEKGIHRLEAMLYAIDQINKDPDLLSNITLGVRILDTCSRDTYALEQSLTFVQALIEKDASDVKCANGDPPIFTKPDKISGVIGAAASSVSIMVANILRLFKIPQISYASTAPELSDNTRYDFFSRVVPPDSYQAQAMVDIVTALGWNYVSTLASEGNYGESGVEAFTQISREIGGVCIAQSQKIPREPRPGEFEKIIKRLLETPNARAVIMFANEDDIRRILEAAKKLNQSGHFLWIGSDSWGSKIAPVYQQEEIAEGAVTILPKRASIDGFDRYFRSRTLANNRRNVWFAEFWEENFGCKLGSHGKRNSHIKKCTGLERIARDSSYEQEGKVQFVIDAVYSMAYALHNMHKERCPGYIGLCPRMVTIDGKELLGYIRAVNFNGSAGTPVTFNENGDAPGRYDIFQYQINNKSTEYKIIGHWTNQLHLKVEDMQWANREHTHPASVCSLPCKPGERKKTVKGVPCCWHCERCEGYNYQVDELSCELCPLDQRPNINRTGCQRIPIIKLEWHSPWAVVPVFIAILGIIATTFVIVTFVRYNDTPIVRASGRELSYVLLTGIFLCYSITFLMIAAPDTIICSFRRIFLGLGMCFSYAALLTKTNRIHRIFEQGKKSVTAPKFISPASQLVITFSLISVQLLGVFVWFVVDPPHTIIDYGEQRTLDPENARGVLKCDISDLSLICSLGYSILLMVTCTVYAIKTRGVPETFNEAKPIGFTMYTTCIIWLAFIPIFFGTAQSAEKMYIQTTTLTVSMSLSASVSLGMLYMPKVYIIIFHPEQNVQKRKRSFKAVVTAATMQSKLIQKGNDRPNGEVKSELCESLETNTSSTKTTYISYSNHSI

Row | Compound | z-score
1 | CCN(CC)c1ccc(/C=C2/C(=O)c3ccc(C(=O)O)cc3C2=O)cc1 | -0.59
2 | O=C(Nc1nccs1)C1CCCN(S(=O)(=O)c2cccc3cccnc23)C1 (stereo unspecified) | 1.94
3 | COC(=O)c1c(NS(=O)(=O)c2ccc3ccccc3c2)sc2c1CCCC2 | 0.384
4 | COc1ccccc1N1CCN(S(=O)(=O)c2cnc[nH]2)CC1 | -0.154
5 | Cc1cccc(C(=O)NCCN2CCOCC2)c1[N+](=O)[O-] | -0.153
6 | O=C(Cc1ccc2c(c1)OCCO2)N1CCN(S(=O)(=O)c2ccccc2C(F)(F)F)CC1 | -0.0164
7 | CC(=N/O)/C(=N\O)c1ccc(C)o1 | 0.0642
8 | O=C(COC(=O)c1ccc(S(=O)(=O)N2CCCC2)cc1)NCc1ccc(F)cc1 | -0.114
9 | CCOc1ccc(-c2nnc(-c3ccc(OC)cc3)o2)cc1 | 0.396
10 | COc1cccc(/C=N/Nc2ccc(S(=O)(=O)O)cc2)c1O | -0.129
11 | C=CCN(C(=O)Nc1ccc(F)cc1)C1CC(=O)N(c2ccc(OC)cc2)C1=O (stereo unspecified) | 0.0834
12 | COc1ccc(S(=O)(=O)N2CCC(C(=O)Nc3cccc(C(C)=O)c3)CC2)cc1 | -0.333
13 | Cc1ccc(-c2nnn(CC(=O)N(CC3CCCO3)C(C(=O)NC(C)(C)C)c3ccc(F)cc3)n2)o1 (stereo unspecified) | -0.276
14 | COCC(C)NC(=O)c1ccc(Cl)c(Cl)c1 (stereo unspecified) | -0.306
15 | Cc1nc(SCC(=O)Nc2ccc(F)cc2)c2oc3ccccc3c2n1 | 0.165
16 | CSCC[C@H](NC(=O)COc1ccc(Cl)cc1)c1nc2ccccc2[nH]1 | -0.151
17 | COc1ccc(OCC(=O)Nc2nnc(C)s2)cc1 | 0.094
18 | COc1ccc(C(C)=O)cc1CN(C)C | 0.27
19 | O=C(CSc1nc2ccccc2nc1SCC(=O)N1CCOCC1)N1CCOCC1 | 0.324
20 | O=C(Oc1ccc([N+](=O)[O-])cc1)c1cc(-c2ccccc2)nc2ccccc12 | 0.227
21 | O=C(c1cc(-c2ccco2)nc2ccccc12)N1CCN(c2ccc(F)cc2)CC1 | 0.0682
22 | c1ccc2c(c1)CCN(c1nc(CN3CCOCC3)nc3sc4c(c13)CCCC4)C2 | -1.03
23 | COc1ccc(-c2nnn(CC(=O)NCc3ccccc3)n2)cc1OC | -0.0224
24 | O=S(=O)(NCCc1ccccc1)c1cccc2nsnc12 | -0.174

Row | Compound | z-score
25 | Cc1ccc(OCc2nnc(SCC(=O)N3CCc4ccccc43)n2C)cc1 | -0.358
26 | COc1c(Cl)cc(-c2noc(C)c2C(=O)NCCc2ccc(C)cc2)cc1Cl | -0.149
27 | N/C(=N\OC(=O)c1cccc(F)c1)c1ccccc1 | -0.224
28 | COCCn1cc(C(=O)NCc2cccs2)c2c3ccccc3n(C)c2c1=O | -0.0703
29 | C=CCOc1c(OC)cc(/C=N/Nc2cccc(C(=O)O)c2)c(Br)c1Br | -0.731
30 | CC(C)N(Cc1nc(-c2ccc(Cl)cc2)no1)C(=O)CCC1CCCC1 | 0.0621
31 | O=C(Nc1cn(-c2ccccc2)nc1-c1ccccc1)c1ccccc1 | -0.43
32 | CCOc1cc(CNc2ccccc2)cc(Br)c1OCC(=O)NC(C)(C)C | -0.159
33 | Cc1ccc(Nc2cc(C)nn2-c2nc(C)cc(C)n2)cc1 | 0.547
34 | Cc1ccccc1C(=O)NC(=S)Nc1ccccc1C(F)(F)F | 1.41
35 | Cc1nn(C)cc1CNC(=O)Nc1ccc(Br)cc1Cl | -0.126
36 | CC1CCCC(NC(=O)CCn2c(=O)oc3ccccc32)C1C (stereo unspecified) | 0.256
37 | Cc1cccc(OCCCC(=O)Nc2ccc(Br)cc2)c1 | 0.1
38 | CCOC(=O)C1CCN(CCC(=O)Nc2ccccc2)CC1 | 0.0558
39 | COc1ccc(-c2cc3nc(C)cc(N)n3n2)cc1 | 0.483
40 | CC(C)CCN(C(=O)Nc1ccccc1)C(C)c1cccs1 (stereo unspecified) | -0.649
41 | Cc1cc(C(=O)N2CCN(c3ncccn3)CC2)c2cc(F)ccc2n1 | -0.0276
42 | O=C(CCCn1c(=O)[nH]c2cc(Cl)ccc2c1=O)NC1CCCCCCC1 | -0.244
43 | CCn1c2ccccc2c2cc(/C=N/NC(=O)c3ccccc3C)ccc21 | -0.411
44 | Cc1ccccc1CSc1ccc(-c2ccc3c(c2)OCO3)nn1 | -0.25
45 | O=C(Nn1c(C2CCCCC2)nc2ccccc2c1=O)c1ccc([N+](=O)[O-])cc1 | 0.823
46 | CCOC(=O)N1CCC(NS(=O)(=O)c2cc(Br)cnc2N)CC1 | -0.28
47 | O=C(O)CCc1nn2cnc3sc4c(c3c2nc1=O)CCCC4 | -0.0834
48 | Cc1sc(NC(=O)Cc2ccc3c(c2)OCO3)nc1-c1ccc2c(c1)CCN2C(=O)c1cccc(F)c1 | -0.162

Row | Compound | z-score
49 | Cc1nnc(NC(=O)c2cccc(F)c2)s1 | -0.523
50 | Cn1cccc1C(=O)C(=O)Nc1ccc(Cl)cc1 | 0.233
51 | CC(=O)Nc1ccc(S(=O)(=O)NNC(=O)COc2ccc(C)cc2)cc1 | -0.214
52 | CCOC(=O)c1ccc(NC(=O)CCS(=O)(=O)c2ccc(Br)s2)cc1 | 0.3
53 | Cn1c(=O)[nH]c(=O)c2c1nc(SCC(=O)Nc1ccccc1)n2Cc1ccccc1 | 0.0773
54 | COc1ccccc1NC(=S)Nc1cccc2cnccc12 | -0.138
55 | O=C(COc1ccccc1[N+](=O)[O-])N/N=C/C=C/c1ccco1 | -0.136
56 | CCC(C)NS(=O)(=O)c1ccc(-c2csnn2)s1 (stereo unspecified) | 0.267
57 | COc1ccccc1N=Cc1c(O)c2ccccc2oc1=O | -0.0898
58 | Cc1cc(NC(=O)CCC(=O)N(c2ccccc2)C(C(=O)NC2CCCC2)c2cccs2)no1 (stereo unspecified) | -0.619
59 | O=C1c2ccccc2CC1Sc1nnc(-c2ccccn2)o1 (stereo unspecified) | -0.372
60 | COc1cc(C(=O)Nc2cccc3cccnc23)cc(OC)c1OC | -0.38
61 | CCNc1ccc(C(=O)OCC(=O)NC(C)c2ccccc2)cc1[N+](=O)[O-] (stereo unspecified) | -0.503
62 | COc1cc(-c2ccccc2)nc2ccccc12 | -0.949
63 | O=c1c2cnn(-c3ccccc3)c2ncn1Cc1ccccc1F | 0.298
64 | COc1cc(OC)cc(C(=O)N2CCN(C(=O)COc3ccc4ccccc4c3)CC2)c1 | 0.077
65 | Cn1c(CO)cnc1SCc1ccc([N+](=O)[O-])cc1 | 0.145
66 | Cc1ccc(NCc2nnc(SCC(=O)Nc3cc(C)on3)n2C)cc1 | -0.268
67 | CCOc1ccccc1NC(=O)N1CCC(NC(=O)c2cccc(C)c2)CC1 | -0.402
68 | CN(C)c1ccnc2sc3c(NCC(O)CO)ncnc3c12 (stereo unspecified) | -0.106
69 | Cc1cccc(N2C(=O)C(Oc3ccc(Cl)cc3Cl)C2C(=O)O)c1C (stereo unspecified) | -0.287
70 | Cc1ccc(Sc2nc(-c3ccccc3)nnc2C(F)(F)F)cc1 | -0.272
71 | CC(=O)N1CCC2(CC1)C(C#N)=C(N)Oc1n[nH]c(C(F)(F)F)c12 | 0.531
